These results are taken from PubChem BioAssay AID1159614 (National Center for Advancing Translational Sciences (NCATS), 2016).

Among all 45,000 compounds or so, about 65 (0.1%) were called active. Calls follow the shape of the dose curve; as a rule, active = well fitted activation curve with a large enough effect; inconclusive = small, poorly fitted or top-dose-only effect; inactive = no such curve, though single readings can be large or run the other way. The list shows a part of the results.

The target of this assay is Galactocerebrosidase (Homo sapiens) (UniProt P54803). The assay is described as follows: A Novel Cell-Based Assay to Identify Small Molecules for B -Galactocerebrosidase. Also: 0% is about no effect; nearly all actives have a fitted effect of over 65% in size. As to conditions: 145M-Twi-hGALC-G270D cells (Twitcher mouse brain line with human GALC G270D), HMU-beta-Gal fluorescence, 48 h; series mostly up to 57.5 µM; activation: at the top concentration. The method, boiled down: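 Mutant human GALC (G270D), stably expressed in a Twitcher mouse brain cell line lacking endogenous GALC, is measured in live-treated cells via 6-hexadecanoylamino-4-methylumbelliferyl-β-galactoside hydrolysis (0.1 mM final, pH 5.2) with fluorescent detection.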
Chain of UniProt P54803 (P54803 whole entry, looked up): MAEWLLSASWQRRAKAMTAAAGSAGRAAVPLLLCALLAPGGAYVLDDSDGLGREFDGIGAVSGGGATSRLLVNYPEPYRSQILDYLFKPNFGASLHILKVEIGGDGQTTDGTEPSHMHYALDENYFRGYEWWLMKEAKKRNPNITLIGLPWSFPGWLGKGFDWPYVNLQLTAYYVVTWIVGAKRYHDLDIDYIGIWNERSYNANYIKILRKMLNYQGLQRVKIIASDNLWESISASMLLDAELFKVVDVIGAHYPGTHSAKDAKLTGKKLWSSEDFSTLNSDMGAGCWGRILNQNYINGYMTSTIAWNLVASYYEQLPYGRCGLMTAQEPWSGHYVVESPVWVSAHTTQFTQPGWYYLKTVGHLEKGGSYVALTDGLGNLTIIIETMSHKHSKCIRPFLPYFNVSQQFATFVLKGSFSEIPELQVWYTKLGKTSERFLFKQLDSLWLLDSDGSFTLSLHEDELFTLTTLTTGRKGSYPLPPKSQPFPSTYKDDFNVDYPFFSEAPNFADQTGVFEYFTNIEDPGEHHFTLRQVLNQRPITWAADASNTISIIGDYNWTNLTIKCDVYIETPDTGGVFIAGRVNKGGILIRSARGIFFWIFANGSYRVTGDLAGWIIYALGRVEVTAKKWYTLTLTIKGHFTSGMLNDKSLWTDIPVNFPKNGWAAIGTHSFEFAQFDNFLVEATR
For `Cc1nn(CCCC(=O)NCc2ccccc2)c(=O)c2c1sc1ccccc12`, the “activation” value was inactive: -10.4%.

Regarding `COc1ccc(NC(=O)c2c(NCc3ccc(C)o3)sc3c2CCC(C)C3)cc1` (stereo unspecified), the “activation” value is inactive: -12.7%.

With `CC1CN(C(=O)CCC(=O)NCc2cccs2)c2ccccc2O1` (stereo unspecified), the “activation” value is inactive: -25.5%.

In the case of `COc1cc(NC(=O)C2=C(C)Nc3nnnn3C2c2ccc(SC)cc2)c(OC)cc1Cl` (stereo unspecified), the “activation” value was inactive: -13.2%.

As for `CCOC(=O)c1ccc(NC(=O)c2nc(S(=O)(=O)Cc3ccccc3)ncc2Cl)cc1`, the “activation” value is inactive: -16.3%.

Take `CCOC(=O)N1CCc2c(sc3c2c(=O)n(Cc2ccccc2)c(=O)n3Cc2cccc(Cl)c2)C1`: the “activation” value is inactive: -4.19%.

For `Cc1ccc(S(=O)(=O)c2cn(C)c3cc(N4CCN(c5ccccc5)CC4)c(F)cc3c2=O)cc1`, the “activation” value is inactive: -7.77%.

On to `CCOc1ccc(C(=O)Nc2ccc3nc4c(c(Nc5ccccc5OC)c3c2)CCCC4)cc1`, for which the “activation” value is inactive: -23.2%.

In the case of `CCOc1ccc2nc(NC(=O)c3nc(SCc4ccc(C)cc4)ncc3Cl)sc2c1`, the “activation” value is inactive: -7.67%.

On to `COc1ccc(N2CCN(c3nc4ccccc4n4c(C)nnc34)CC2)cc1`, for which the “activation” value was inactive: -10.8%.

In the case of `CCOC(=O)CC(NS(=O)(=O)c1cc(-c2cc(C)no2)ccc1C)c1ccc(C)cc1` (stereo unspecified), the “activation” value is inactive: -23.6%.

`CC(C)CCn1c(=O)c2sccc2n2c(CCCC(=O)Nc3ccc(C(C)C)cc3)nnc12`: the “activation” value was inactive: -2.02%.

In the case of `CN(C(=O)CSc1nc2ccccc2[nH]1)c1ccc(F)cc1`, the “activation” value was inactive: -6.09%.

With `Cc1ccc(CSc2nncn3c2cc2sccc23)cc1`, the “activation” value was inactive: -10.5%.

Regarding `O=C(CC1N=C2c3ccccc3N=C(SCC(=O)Nc3ccccc3F)N2C1=O)NCc1ccc2c(c1)OCO2` (stereo unspecified), the “activation” value is inactive: -17.2%.

Regarding `Cc1ccc2occ(CC(=O)Nc3c(C(=O)Nc4ccc(Cl)cc4)oc4ccccc34)c2c1`, the “activation” value was inactive: -11.4%.

Take `CC(C)COc1ccc(C(=O)N2CCC(c3nc4ccccc4s3)CC2)cc1`: the “activation” value was inactive: -17%.

As to `Cc1cccc(C)c1NC(=O)CN(C)S(=O)(=O)c1ccc2[nH]c3c(c2c1)CCCC3`, the “activation” value is inactive: -24.7%.

As for `Cc1cccc(N2C(=O)N(Cc3ccc(C(C)(C)C)cc3)c3ccccc3S2(=O)=O)c1`, the “activation” value is inactive: -9.36%.

In the case of `O=C(NCc1ccc(Cl)cc1)c1cnc(N2CCOCC2)c2ccccc12`, the “activation” value was inactive: -5.23%.

Regarding `COc1ccccc1NC(=O)C1=C(C)Nc2nc(SCC(=O)c3ccc(C)cc3)nn2C1c1ccc(F)cc1` (stereo unspecified), the “activation” value is inactive: -8.09%.

As for `Cc1ccc(CSCCNC(=O)CN(c2cccc(C)c2C)S(=O)(=O)c2ccccc2)cc1`, the “activation” value is inactive: -4.08%.

On to `CCOC(=O)c1c(NC(=O)C(C)Sc2cn(CCNC(=O)c3ccc(OC)cc3)c3ccccc23)sc2c1CCC2` (stereo unspecified), for which the “activation” value is inactive: 3.81%.

Regarding `CCCOCc1cc(CN2CCN(c3ccccc3OC)CC2)c(O)c2ncccc12`, the “activation” value is inactive: -17.7%.

Consider `COc1ccc(OC)c(S(=O)(=O)NCc2ccc3c(c2)CCN3C(=O)c2cccc(C)c2)c1`, for which the “activation” value is inactive: 3.2%.

`Cc1ccccc1CNC(=O)c1ccc(Cn2c(SCc3ccccc3)nc3cccnc32)cc1`: the “activation” value was inactive: -12.7%.
